According to the supplement of paper PMC8728848:
This is one part of the list.

Experiments:
Assay in all cases: glycan array binding signal (z-score within array); higher = stronger binding
Details in all cases: glycan notation: IUPAC condensed, linker removed
Fuc(a1-2)Gal = target: Fuc(a1-2)Gal
Method in brief: (§1)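 Arrays were curated from the Consortium for Functional Glycomics database, 3228 in total, and kept only where the protein sequence was available. Binding is expressed as a within-array Z-score. This score was averaged across arrays of the same protein sequence at different concentrations or buffers and across linkers, and negative values can be read as non-binding.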

Fuc(a1-2)Gal(b1-3)GalNAc = target: Fuc(a1-2)Gal(b1-3)GalNAc
Method in brief: as §1

[1] = target: Fuc(a1-2)Gal(b1-3)GalNAc(b1-3)Gal
Method in brief: as §1

[2] = target: Fuc(a1-2)Gal(b1-3)GalNAc(b1-3)Gal(a1-4)Gal(b1-4)Glc
Method in brief: as §1

[3] = target: Fuc(a1-2)Gal(b1-3)GalNAc(b1-4)[Neu5Ac(a2-3)]Gal(b1-4)Glc
Method in brief: as §1

Fuc(a1-2)Gal(b1-3)GlcNAc = target: Fuc(a1-2)Gal(b1-3)GlcNAc
Method in brief: as §1

[4] = target: Fuc(a1-2)Gal(b1-3)GlcNAc(b1-3)Gal(b1-4)Glc
Method in brief: as §1

[5] = target: Fuc(a1-2)Gal(b1-3)[Fuc(a1-4)]GlcNAc
Method in brief: as §1

Fuc(a1-2)Gal(b1-4)Glc = target: Fuc(a1-2)Gal(b1-4)Glc
Method in brief: as §1

Fuc(a1-2)Gal(b1-4)Glc6S = target: Fuc(a1-2)Gal(b1-4)Glc6S
Method in brief: as §1

Fuc(a1-2)Gal(b1-4)GlcNAc = target: Fuc(a1-2)Gal(b1-4)GlcNAc
Method in brief: as §1

[6] = target: Fuc(a1-2)Gal(b1-4)GlcNAc(b1-3)Gal(b1-4)GlcNAc
Method in brief: as §1

[7] = target: Fuc(a1-2)Gal(b1-4)GlcNAc(b1-3)Gal(b1-4)GlcNAc(b1-3)Gal(b1-4)GlcNAc
Method in brief: as §1

[8] = target: Fuc(a1-2)Gal(b1-4)GlcNAc6S
Method in brief: as §1

[9] = target: Fuc(a1-2)Gal(b1-4)[Fuc(a1-3)]GlcNAc
Method in brief: as §1

[10] = target: Fuc(a1-2)Gal(b1-4)[Fuc(a1-3)]GlcNAc(b1-3)Gal(b1-4)[Fuc(a1-3)]GlcNAc
Method in brief: as §1

[11] = target: Fuc(a1-2)Gal(b1-4)[Fuc(a1-3)]GlcNAc(b1-3)Gal(b1-4)[Fuc(a1-3)]GlcNAc(b1-3)Gal(b1-4)[Fuc(a1-3)]GlcNAc
Method in brief: as §1

Fuc(a1-2)Gal6S(b1-4)Glc = target: Fuc(a1-2)Gal6S(b1-4)Glc
Method in brief: as §1

[12] = target: Fuc(a1-2)Gal6S(b1-4)Glc6S
Method in brief: as §1

[13] = target: Fuc(a1-2)Gal6S(b1-4)GlcNAc
Method in brief: as §1

Fuc(a1-2)[Gal(a1-3)]Gal = target: Fuc(a1-2)[Gal(a1-3)]Gal
Method in brief: as §1

[14] = target: Fuc(a1-2)[Gal(a1-3)]Gal(b1-3)GlcNAc
Method in brief: as §1

[15] = target: Fuc(a1-2)[Gal(a1-3)]Gal(b1-4)Glc
Method in brief: as §1

[16] = target: Fuc(a1-2)[Gal(a1-3)]Gal(b1-4)GlcNAc
Method in brief: as §1

[17] = target: Fuc(a1-2)[Gal(a1-3)]Gal(b1-4)[Fuc(a1-3)]GlcNAc
Method in brief: as §1

[18] = target: Fuc(a1-2)[Gal(a1-4)]Gal(b1-4)GlcNAc
Method in brief: as §1

[19] = target: Fuc(a1-2)[GalNAc(a1-3)]Gal
Method in brief: as §1

[20] = target: Fuc(a1-2)[GalNAc(a1-3)]Gal(b1-3)GlcNAc
Method in brief: as §1

[21] = target: Fuc(a1-2)[GalNAc(a1-3)]Gal(b1-4)Glc
Method in brief: as §1

[22] = target: Fuc(a1-2)[GalNAc(a1-3)]Gal(b1-4)GlcNAc
Method in brief: as §1

B1: P-Selectin (Homo sapiens), P16109 (protein)
chain: MANCQIAILYQRFQRVVFGISQLLCFSALISELTNQKEVAAWTYHYSTKAYSWNISRKYCQNRYTDLVAIQNKNEIDYLNKVLPYYSSYYWIGIRKNNKTWTWVGTKKALTNEAENWADNEPNNKRNNEDCVEIYIKSPSAPGKWNDEHCLKKKHALCYTASCQDMSCSKQGECLETIGNYTCSCYPGFYGPECEYVRECGELELPQHVLMNCSHPLGNFSFNSQCSFHCTDGYQVNGPSKLECLASGIWTNKPPQCLAAQCPPLKIPERGNMTCLHSAKAFQHQSSCSFSCEEGFALVGPEVVQCTASGVWTAPAPVCKAVQCQHLEAPSEGTMDCVHPLTAFAYGSSCKFECQPGYRVRGLDMLRCIDSGHWSAPLPTCEAISCEPLESPVHGSMDCSPSLRAFQYDTNCSFRCAEGFMLRGADIVRCDNLGQWTAPAPVCQALQCQDLPVPNEARVNCSHPFGAFRYQSVCSFTCNEGLLLVGASVLQCLATGNWNSVPPECQAIPCTPLLSPQNGTMTCVQPLGSSSYKSTCQFICDEGYSLSGPERLDCTRSGRWTDSPPMCEAIKCPELFAPEQGSLDCSDTRGEFNVGSTCHFSCDNGFKLEGPNNVECTTSGRWSATPPTCKGIASLPTPGLQCPALTTPGQGTMYCRHHPGTFGFNTTCYFGCNAGFTLIGDSTLSCRPSGQWTAVTPACRAVKCSELHVNKPIAMNCSNLWGNFSYGSICSFHCLEGQLLNGSAQTACQENGHWSTTVPTCQAGPLTIQEASTSITAYKSEGESAEFSFPLNLGEESLQGELRWKAEKAPSSQSWITFSLKNQKVSVQKSTSNPKFQLSETLPLTLQIPQVSLQFAGSGNLTLTLDRGILYQEVNLVVMKVTQPDSNTLTCEVMGPTSPKMRLILKQENQEARVSRQEKVIQVQAPEAGVWQCLLSEGEEVKMDSKIQVLSKGLNSGGGSGGGTGGGDLAPQMLRELQETNAALQDVRELLRQQVKEITFLKNTVMECDACGLDRNLPPLAPLGPHPETLVKVKDAEDQLGARVGYIELDLNSGKILESFRPEERFPMMSTFKVLLCGAVLSRIDAGQEQLGRRIHYSQNDLVEYSPVTEKHLTDGMTVRELCSAAITMSDNTAANLLLTTIGGPKELTAFLHNMGDHVTRLDRWEPELNEAIPNDERDTTMPVAMATTLRKLLTGELLTLASRQQLIDWMEADKVAGPLLRSALPAGWFIADKSGAGERGSRGIIAALGPDGKPSRIVVIYTTGSQATMDERNRQIAEIGASLIKHWGPDYKDHDGDYKDHDIDYKDDDDKGPHHHHHH
glycan array binding signal (z-score) (Fuc(a1-2)Gal): -0.092 | glycan array binding signal (z-score) (Fuc(a1-2)Gal(b1-3)GalNAc): -0.429 | glycan array binding signal (z-score) [1]: -0.105 | glycan array binding signal (z-score) [2]: -0.319 | glycan array binding signal (z-score) [3]: 0.069 | glycan array binding signal (z-score) (Fuc(a1-2)Gal(b1-3)GlcNAc): -0.319 | glycan array binding signal (z-score) [4]: -0.298 | glycan array binding signal (z-score) [5]: -0.328 | glycan array binding signal (z-score) (Fuc(a1-2)Gal(b1-4)Glc): 0.196 | glycan array binding signal (z-score) (Fuc(a1-2)Gal(b1-4)Glc6S): -0.268 | glycan array binding signal (z-score) (Fuc(a1-2)Gal(b1-4)GlcNAc): -0.13 | glycan array binding signal (z-score) [6]: -0.267 | glycan array binding signal (z-score) [7]: -0.153 | glycan array binding signal (z-score) [8]: -0.148 | glycan array binding signal (z-score) [9]: -0.385 | glycan array binding signal (z-score) [10]: -0.349 | glycan array binding signal (z-score) [11]: -0.214 | glycan array binding signal (z-score) (Fuc(a1-2)Gal6S(b1-4)Glc): -0.098 | glycan array binding signal (z-score) [12]: 1.21 | glycan array binding signal (z-score) [13]: -0.134 | glycan array binding signal (z-score) (Fuc(a1-2)[Gal(a1-3)]Gal): -0.235 | glycan array binding signal (z-score) [14]: -0.491 | glycan array binding signal (z-score) [15]: -0.32 | glycan array binding signal (z-score) [16]: -0.305 | glycan array binding signal (z-score) [17]: 0.127 | glycan array binding signal (z-score) [18]: -0.151 | glycan array binding signal (z-score) [19]: -0.224 | glycan array binding signal (z-score) [20]: -0.339 | glycan array binding signal (z-score) [21]: -0.331 | glycan array binding signal (z-score) [22]: -0.052
